From PubChem BioAssay AID624418 (National Center for Advancing Translational Sciences (NCATS), 2012)
Screen size: about 410,000 compounds; about 530 (0.13%) were called active. Inconclusive results, whose numbers are uncertain, are shown with a selection of clear calls. Calls follow the shape of the dose curve; as a rule, active = well fitted inhibition curve with a large enough effect; inconclusive = small, poorly fitted or top-dose-only effect, or another doubt; inactive = no such curve, though single readings can be large or run the other way. A potency beside an inconclusive call is a rough fit, not a confirmed value.
% is scaled to controls: 0 for no effect and ±100 for the full control effect; potency is read from the fitted curve at half-maximal effect.

Experiment: qHTS of GLP-1 Receptor Inverse Agonists: Cytotox Screen
Conditions: HEK293 cAMP-luciferase reporter cells, luminescence, 24 h; activity change, negative = inhibition: at 38.3 µM (top of the series) unless noted
Outline: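 To flag toxic compounds, the library was rerun on cells for 24 hr at 37 deg C and 5% CO2. Viability-linked luminescence was captured 12 min after adding luciferase detection reagent.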
For COc1ccc(Cl)cc1NC(=O)C1Cc2cc(S(=O)(=O)N3CCCC3)ccc2N1C(C)=O (centres undefined), the “activity change, negative = inhibition” value was inactive: -1.6%. In the case of COc1ccc(C2c3c(-c4c(C)cc(C)cc4O)n[nH]c3C(=O)N2Cc2ccco2)cc1 (centres undefined), the Potency is reported as inconclusive: 14.1 µM [inhibitor, single point]. For CCCc1nc([N+](=O)[O-])c(S(=O)(=O)c2ccccc2)n1CC(C)C, the Potency was inconclusive: 12.6 µM [inhibitor, partial curve, poor fit]. In the case of COc1ccc(C(=O)/C(C#N)=N/Nc2ccccc2[N+](=O)[O-])cc1, the Potency is reported as inconclusive: 2.24 µM [inhibitor, full curve]. With Nc1[nH]n(-c2c(Cl)cc(Cl)cc2Cl)c(=O)c1N=Nc1ccc(S(=O)(=O)Nc2ncccn2)cc1 the Potency was inconclusive: 14.1 µM [inhibitor, single point]. For CCOC(=O)c1c(-c2ccccc2)csc1NC(=O)/C(C#N)=C/c1ccc(O)c(OC)c1, the “activity change, negative = inhibition” value was inactive: 47.2%. For Cc1ccc(-c2nnc(SCc3ccccc3C#N)o2)cc1, the “activity change, negative = inhibition” value was inactive: 1.3%. For Cc1ccc2c(c1)c1c(n2CC(O)CN2CCC(C)CC2)CCCC1 (centres undefined), the Potency was inconclusive: 22.4 µM [inhibitor, single point]. For CN(C)CCCOC(=O)N1c2ccccc2C=Cc2ccccc21, the “activity change, negative = inhibition” value was inactive: -14.6%. For CC(=O)c1cc2c(cc1NC(=O)CCc1c(C)nc3ncnn3c1C)OCO2, the Potency was inconclusive: 28.2 µM [inhibitor, single point]. For COc1cc(/C=N/Nc2snc(SC)c2C#N)cc(OC)c1OC, the Potency was inconclusive: 7.94 µM [inhibitor, partial curve, poor fit]. With COc1ccc(C(=O)COC(=O)c2cccc(NC(=O)c3ccc(OC)c(OC)c3)c2)cc1 the Potency was inconclusive: 28.2 µM [inhibitor, single point]. With O=C(Cc1ccccc1)N1CCN(c2ccccc2F)CC1 the “activity change, negative = inhibition” value was inactive: -1.46%. With Cc1ccc(CNC(=O)CCc2c(C)nn(-c3ccc(N4CCCCC4)nn3)c2C)cc1 the “activity change, negative = inhibition” value was inactive: 0.98%. With Cn1cc(C(=O)N/N=C/C(Br)=C\c2ccccc2)ccc1=O the Potency was inconclusive: 5.01 µM [inhibitor, full curve, poor fit]. With CN(C)/C=N/c1ncc(C(=O)c2ccc(-c3ccccc3)cc2)s1 the “activity change, negative = inhibition” value was inactive: 9.05%. With Cc1ccc(OCCOC(=O)c2cc(S(=O)(=O)N3CCCCC3)ccc2N2CCOCC2)cc1 the Potency was inconclusive: 5.62 µM [inhibitor, full curve, poor fit]. With NS(=O)(=O)c1ccc(CCNCc2cc(Cl)ccc2OCc2ccccc2)cc1 the Potency was inconclusive: 8.91 µM [inhibitor, partial curve, poor fit]. With Cc1cc(C(=O)COC(=O)c2nn(C)c(=O)c3ccccc23)c(C)n1C the Potency was inconclusive: 2.51 µM [inhibitor, partial curve, poor fit].
